Consider 42 compounds from ChEMBL document CHEMBL4888484, “Replenishing the malaria drug discovery pipeline: Screening and hit evaluation of the MMV Hit Generation Library 1 (HGL1) against asexual blood stage Plasmodium falciparum ,using a nano luciferase reporter read-out” (2022).

Screen size: about 150,000 compounds; about 540 (0.36%) showed an effect of 50% or more. The list shows a part of the results.

The subject of the assay is Plasmodium falciparum. Briefly: Primary screen in NF54 nanoGlo assay, in single point, at 2uM, 72h; a lower Z score goes with more inhibition. It counts as functional, Erythrocyte. The conditions noted are these: timepoint 72 hour.
As a reminder, the % Inhibition is the drop in the measured response relative to a control, in per cent. In the case of `O=C(O)Cn1nc(C2CCCC2)nc1CCOc1ccccc1`, the “% Inhibition” value is -6% and the Z score is 1.09.

For the compound `C=CCCC(=O)NCc1csc(NC(=O)CCC=C)n1`, the “% Inhibition” value was -16% and the Z score is reported as 1.6.

With `C[C@@H](CCNC(=O)c1cccnc1NC1CCCC1)c1ccccc1`, the “% Inhibition” value was -15% and the Z score turned out to be 1.35.

In the case of `NC(=O)c1csc(C(=O)NC[C@H]2CCCC[C@@H]2O)c1`, the “% Inhibition” value was found to be 8% and the Z score was -1.03.

In the case of `CC(C)OCCS(=O)(=O)NC1(c2ccccc2)CC1`, the “% Inhibition” value was -16% and the Z score turned out to be 2.06.

As for `CCCc1cc(N2CCO[C@H](c3cccc(Cl)c3)C2)n2ncnc2n1`, the “% Inhibition” value is -5% and the Z score came to 0.66.

Take `CC(NCC1CS(=O)(=O)c2ccccc21)[C@@H]1C[C@H]1C1CC1` (some centres undefined): the “% Inhibition” value was -3% and the Z score is listed as 0.41.

Take `O=C1N[C@H](Cc2c[nH]cn2)C(=O)NC1C1CCCCCC1` (some centres undefined): the “% Inhibition” value is reported as 13% and the Z score is -1.64.

Turning to `Cc1nc(-c2ncc(C(=O)N(C)Cc3noc(C4CC4)n3)c(O)n2)cs1`, the “% Inhibition” value was -10% and the Z score was found to be 0.93.

As for `CC(NC(C)C1CCCO1)c1nc2ccccc2o1` (centres undefined), the “% Inhibition” value is reported as 7% and the Z score was -1.05.

Turning to `Cc1ccccc1-c1ccccc1C(=O)N[C@H]1C[C@H]2OCC[C@@H]12`, the “% Inhibition” value was -4% and the Z score worked out at 0.38.

With `Cc1ccc(Cl)cc1-n1ncc2c(=O)n(CC(=O)N3CCN(c4ccc(F)cc4)CC3)cnc21`, the “% Inhibition” value is on record as -13% and the Z score is 2.39.

For the compound `CC1CCN(S(=O)(=O)c2ccc(N3CCCCS3(=O)=O)cc2)CC1`, the “% Inhibition” value is given as -11% and the Z score came to 1.12.

For `CCCc1ccc(S(=O)(=O)N2CCC3(CC2)NCCCN=C3NC2CCCC2)cc1`, the “% Inhibition” value was -1% and the Z score came out at 0.09.

Turning to `N#Cc1cccc(N2C3CCC2CC(O)C3)n1` (centres undefined), the “% Inhibition” value is on record as -7% and the Z score is listed as 1.49.

Consider `COc1cccc(-c2ccc3c(c2)O[C@H]2CN(CC4CC4)C[C@H]2N(C)C3=O)c1`, for which the “% Inhibition” value came to 5% and the Z score is -0.77.

Take `CCCC(=O)Nc1cccc(C(=O)O)c1C`: the “% Inhibition” value was determined as 33% and the Z score is -4.44.

For `COc1ccc(CCNC(=O)N2CC=C(C(F)(F)F)CC2)cc1F`, the “% Inhibition” value was determined as 6% and the Z score is -1.17.

As for `COc1ccccc1NC(=O)[C@H]1CCCN(c2ncnc3oc(C)c(C)c23)C1`, the “% Inhibition” value is -9% and the Z score was determined as 0.91.

Take `c1ccc2[nH]c(CCc3nc4ccccc4s3)nc2c1`: the “% Inhibition” value was 0% and the Z score is listed as -0.05.

On to `COC(=O)CCN(CC(C)C)c1nc(-c2cccnc2)nc2ccccc12`, for which the “% Inhibition” value is -12% and the Z score is listed as 1.51.

Take `COCCn1c(CN(C)C)nnc1[C@H]1C[C@@H](N)C1`: the “% Inhibition” value is reported as 4% and the Z score is on record as -0.63.

In the case of `CC(C)N1CC[C@@H]2[C@H]1C(=O)NC[C@H](CCC(=O)Nc1ccccc1)N2C`, the “% Inhibition” value is listed as -4% and the Z score came to 0.63.

On to `C[C@@H](CCO)CNc1noc(-c2ccccc2)n1`, for which the “% Inhibition” value is listed as -6% and the Z score is given as 0.94.

Turning to `CCc1nc2c(c(OC3CCN(C(=O)Cc4cccs4)CC3)n1)CCOCC2`, the “% Inhibition” value is -7% and the Z score is reported as 0.9.

With `Cc1nc(-c2cc3cccc(C)c3nc2N2CCN(C(=O)c3cccs3)CC2)no1`, the “% Inhibition” value is given as -5% and the Z score was determined as 0.74.

Regarding `O=C(COc1ccccc1C(=O)N1CCCCC1)NCc1ccc2c(c1)OCO2`, the “% Inhibition” value is listed as -10% and the Z score is 1.3.

Take `CC1(C)CN(C(=O)c2coc(C(N)=O)c2)C[C@@](C)(C(F)(F)F)O1`: the “% Inhibition” value is listed as -12% and the Z score was 1.55.

For the compound `Cn1c(CN2C[C@@H]3CC[C@H]2CN(Cc2ccccn2)C3)cc2cc(F)ccc21`, the “% Inhibition” value is -9% and the Z score amounted to 1.57.

Consider `CO[C@H]1CCN(c2[nH]c(=O)n(C)c(=O)c2C#N)CC1(C)C`, for which the “% Inhibition” value is given as -5% and the Z score amounted to 0.68.

Take `O=C(c1c[nH]c2cc(Cl)ccc2c1=O)N1CCN(c2ccccc2)CC1`: the “% Inhibition” value is recorded as 0% and the Z score was 0.03.

Turning to `c1ccc(-n2ncc3c(N4CCC[C@H]4c4ccccn4)ncnc32)cc1`, the “% Inhibition” value is given as -1% and the Z score turned out to be 0.3.

On to `CCOC[C@H]1CCCN(C(=O)c2cc(=O)n(-c3ccc(C)cc3)[nH]2)C1`, for which the “% Inhibition” value turned out to be 1% and the Z score was -0.09.

As for `CCC1(NC(=O)CCc2ccc(C)s2)CCOCC1`, the “% Inhibition” value was -7% and the Z score came out at 0.94.

On to `Cc1nc(NCCCOC[C@H]2CCOC2)sc1S(N)(=O)=O`, for which the “% Inhibition” value is -5% and the Z score came to 0.45.

Consider `CCc1cnc(C)nc1N1CCC[C@@]2(CCC(=O)N(CCOC)C2)C1`, for which the “% Inhibition” value is -7% and the Z score came out at 1.37.

Consider `C[C@H]1[C@@H]2[C@@H](O)C([C@H](C)C(=O)NCCN3CCOCC3)CC[C@@]2(C)CC[C@@H]1NC(=O)c1ccncc1` (some centres undefined), for which the “% Inhibition” value is 14% and the Z score is -1.65.

Turning to `COc1ccc(CC(=O)N2CCN(c3cc(C)n4cnnc4n3)CC2)cc1OC`, the “% Inhibition” value is reported as -12% and the Z score is reported as 1.54.

In the case of `CCn1nnc(NC(=O)c2ccc3c(c2)OCCO3)n1`, the “% Inhibition” value is recorded as -6% and the Z score is 0.82.

Regarding `CCn1ccc(CN(C)Cc2cnn(C(C)C)c2)n1`, the “% Inhibition” value is 2% and the Z score was -0.23.

With `Cc1[nH][nH]c(=O)c1CC(=O)N1CCC[C@H](c2nc3ccccc3n2C)C1`, the “% Inhibition” value is given as 9% and the Z score was -1.36.

With `Cn1cc(NC(=O)[C@H]2CC(=O)N(c3[nH]nc4ccccc34)C2)cn1`, the “% Inhibition” value amounted to 4% and the Z score is listed as -0.52.
